# Measured values published in article PMC6919601, “Identification of Plasmodium dipeptidyl aminopeptidase allosteric inhibitors by high throughput screening” (PLoS ONE, 2019).
# Where “and” joins values, the source holds several entries; their conditions need not be identical. Identical values can stand only once. Out of some 110,000 compounds screened, about 230 (0.21%) showed an effect of 50% or more. This is one part of the list.
# Target: DPAP1 (Plasmodium falciparum, UniProt Q8IIJ9)
# Assay: primary screen, percent inhibition; read by cleavage of a fluorogenic dipeptide substrate; higher = more effect of the substance
# Set-up: species or system P. falciparum D10 trophozoite lysates; single well
# 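Further: 30 min substrate incubation versus DMSO and 10 µM JCP410 controls.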
# Sequence of DPAP1 (Q8IIJ9 whole entry, looked up): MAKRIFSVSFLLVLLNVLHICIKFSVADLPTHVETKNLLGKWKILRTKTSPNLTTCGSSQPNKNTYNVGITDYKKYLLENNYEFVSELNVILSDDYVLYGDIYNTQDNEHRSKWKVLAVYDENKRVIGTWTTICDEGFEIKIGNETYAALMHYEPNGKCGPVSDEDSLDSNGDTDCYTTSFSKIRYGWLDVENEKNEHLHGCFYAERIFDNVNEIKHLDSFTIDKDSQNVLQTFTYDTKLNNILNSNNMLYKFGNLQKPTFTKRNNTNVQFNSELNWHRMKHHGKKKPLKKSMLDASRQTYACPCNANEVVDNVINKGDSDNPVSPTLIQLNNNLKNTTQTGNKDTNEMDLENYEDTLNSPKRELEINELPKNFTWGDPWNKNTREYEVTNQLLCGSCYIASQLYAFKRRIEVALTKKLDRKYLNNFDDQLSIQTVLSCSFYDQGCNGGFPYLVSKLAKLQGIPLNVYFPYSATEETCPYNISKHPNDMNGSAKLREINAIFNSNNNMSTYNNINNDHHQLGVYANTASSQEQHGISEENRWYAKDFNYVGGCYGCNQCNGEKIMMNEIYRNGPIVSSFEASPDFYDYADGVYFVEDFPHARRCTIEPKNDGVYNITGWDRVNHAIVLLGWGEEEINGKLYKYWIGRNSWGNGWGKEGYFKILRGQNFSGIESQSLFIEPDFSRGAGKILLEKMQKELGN
row,Structure (SMILES),% Inhibition @ 10 uM
1,O=[N+]([O-])c1cc(C(F)(F)F)ccc1N1CCCCC1,1.41%
2,Cc1ccc(-c2nc3ccccc3s2)cc1NC(=O)Cn1cnc2c(=O)n(C)c(=O)n(C)c21,10.6%
3,COc1ccc(C2C(C(=O)N3CCOCC3)=C(C)Nc3nc4ccccc4n32)cc1 (stereo not shown),-1.8%
4,CCOc1cc(C2C3=C(O)CC(c4ccccc4)CC3=NC(C)=C2C(=O)OC)cc(Cl)c1O (stereo not shown),19.3%
5,COc1ccc(CN2CCN(Cc3ccc(Br)cc3)CC2)c(OC)c1,13.4%
6,CC(C)(CO)Nc1nc(NC2CCCCC2)nc(NC2CCCCC2)n1,-7.01%
7,C=CCN1C(=O)NC(=O)/C(=C\c2ccc(O)c(O)c2)C1=O,20.2%
8,Cc1ccc2ncc(S(=O)(=O)c3ccccc3)c(N3CCCCC3)c2c1,-1.85%
9,CCN1CCN(c2nc3c(S(=O)(=O)c4ccc(Cl)cc4)nnn3c3ccsc23)CC1,-5.26%
10,CN1CCN(C(=O)c2nn3c(C(F)(F)F)cc(-c4cccs4)nc3c2Cl)CC1,-5.28%
11,CC(C)NC(=O)c1cccc(Cn2cc(Cl)cn2)c1,-6.62%
12,Nc1c(-c2nc3ccccc3[nH]2)nnn1-c1cccc(C(F)(F)F)c1,-2.28%
13,O=C1NC(=O)C(Cc2ccccc2)(CN2CCCCC2)C(=O)N1,-0.925%
14,Cc1cc(C)c2nc(NC(=O)c3sc(C)nc3C)sc2c1,5.54%
15,O=C(CN1C(=O)c2ccccc2C1=O)NCc1ccc(C(=O)O)cc1,20.5%
16,CCCN1CCN(C(=O)Cc2c(C)nc3c(-c4ccccc4)c(C)nn3c2C)CC1,0.953%
17,CN(Cc1ccco1)C(=O)CN1N=C(c2ccccc2)CCC1=O,-0.0542%
18,O=C(NCc1ccco1)C1CC(=O)N(c2ccc(F)cc2)C1 (stereo not shown),1.62%
19,CNC(=O)/C(=C\c1ccc(OC)cc1)NC(=O)c1ccccc1,-1.37%
20,c1nnc2c3c4c(sc3ncn12)CCC4,-0.178%
21,Cc1cccc(-c2noc(CNC(=O)c3ccc(Br)o3)n2)c1,-2.99%
22,CCOc1cc(S(=O)(=O)Nc2cccnc2)ccc1Cl,1.72%
23,O=C(Nc1ccc(F)cc1)c1scc2c1CCCC2,-8.6%
24,CCOc1ccc(C(=O)/C=C/c2ccc(C(C)C)cc2)cc1,2.94%
25,Cc1ccc(S(=O)(=O)NC(C(=O)N2CCOCCOCCOCC2)c2ccccc2)cc1 (stereo not shown),-4.93%

row,Structure (SMILES),% Inhibition @ 10 uM
1,CN1CC[C@@]2(O)CCCC[C@@H]2[C@H]1c1ccc(F)cc1,-4.11%
2,CCN1CCN(C(CNC(=O)c2ccc3c(c2)OCO3)c2cccnc2)CC1 (stereo not shown),-5.37%
3,NC(=O)c1c(NC(=O)C(F)(F)F)sc2c1CCCCCC2,-3.87%
4,CC(CCc1ccccc1)NC(=O)Cn1ncn2c(cc3sccc32)c1=O (stereo not shown),4.95%
5,Cc1cc2c(c(=O)o1)C(c1ccc3ccccc3c1)C(C#N)=C(N)O2 (stereo not shown),-2.22%
6,Cc1cc(C)c(C#N)c(SCC(=O)c2ccc(C)c(C)c2)n1,16.2%
7,COc1ccc(C2C=C(c3ccc(C)cc3)Nc3nnnn32)c(OC)c1 (stereo not shown),0.0842%
8,COc1ccc2c(c1)CCC1C2=NN(C(C)=O)C1c1ccccc1 (stereo not shown),3.61%
9,O=C(Cn1c(C(=O)O)ccc1-c1ccco1)c1ccccc1,-0.0309%
10,CC(C)(C)OC(=O)N1CCC(C(=O)N2CCCC2)CC1,1.63%
11,CCOC(=O)c1ccccc1NS(=O)(=O)c1ccccc1,-2.7%
12,O=C(NCc1ccco1)c1csc2c1CCCCC2,0.277%
13,CCCCO/C(O)=C1/C(C)=NC2=C(C(=O)CCC2)C1c1ccccc1 (stereo not shown),-5.92%
14,Cc1cc(Cl)ccc1OCC(=O)Nc1ccncc1,-1.88%
15,CCn1c(SCC(=O)Nc2cccc(OC)c2)nc2c1c(=O)n(C)c(=O)n2C,-4.03%
16,CN1CCC(NCCc2ccccc2F)CC1,2.99%
17,O=C(COc1ccccc1Br)N1CCOCC1,-8.82%
18,O=C1NC(NCCc2ccccc2)=N/C1=C\c1ccccc1Cl,-4.02%
19,Clc1ncnc2c1C(c1ccc(Br)cc1)c1c(Cl)ncnc1O2,-6.87%
20,CC1CCN(CC(O)Cn2cnc3c2c(=O)n(C)c(=O)n3C)CC1 (stereo not shown),-6.66%
21,Cc1ccc(N(CC(=O)Nc2ccc(CC#N)cc2)S(=O)(=O)c2ccc(C)cc2)cc1,-0.175%
22,CCS(=O)(=O)C1=NSC2=NC(=O)/C(=C\c3ccc(C)cc3)C(=N)N21,1.85%
23,COCCCN1C(=O)c2ccccc2C1C(=O)NC1CCCCCC1 (stereo not shown),1.76%
24,Nc1nc2ccc(S(=O)(=O)N3CCOCC3)cc2s1,4.47%
25,COc1ccc(N2CC(C(=O)Nc3ccc(F)cc3F)CC2=O)cc1 (stereo not shown),0.674% and 1.19%

row,Structure (SMILES),% Inhibition @ 10 uM
1,COc1cccc(C(=O)Nc2ccc(Cl)cc2F)c1,-5.14%
2,CC[C@H](NC(=O)[C@H](CCSc1ccccc1)NC1=NS(=O)(=O)c2ccccc21)C(=O)c1nc2ccccc2o1,-1.5%
3,CCOC(=O)N1CCN(c2cc(N3CCC(C)CC3)c(F)cc2[N+](=O)[O-])CC1,2.05%
4,COc1cccc(-c2cc(C(=O)Nc3sc(C)c(C)c3C(N)=O)c3ccccc3n2)c1,-4.16%
5,CC(C)c1ccc(-c2c(NCCc3ccc(Cl)cc3)c(=O)c2=O)cc1,3.04%
6,O=[N+]([O-])c1ccc(-c2cc(O)n(-c3nc4ccccc4s3)n2)cc1,-2.12%
7,CC1CCN(CN2C(=O)c3ccccc3C2=O)CC1,-6.36%
8,O=C(Nc1cccc(Br)c1)c1ccccc1F,-3.35%
9,COc1cc(OC)cc(C(=O)Nc2ccc(C(F)(F)F)cc2)c1,3.9%
10,c1cc2c(cc1C1CCCCC1)c1c3n2CCN=C3CCC1,9.68%
11,Cc1cc(O)nc2c1c(C)nn2-c1ccccc1,-1.86%
12,c1cncc(CNc2nc3ccccc3c3nc(-c4cccnc4)nn23)c1,-6.07%
13,CNc1nc(/C=C/c2ccccc2)nc(-c2ccccc2O)n1,-3.32%
14,CC/N=c1\c(NS(=O)(=O)c2ccc(C)cc2C)c(O)oc2ccccc12,4.47%
15,Cc1[nH]c2ccccc2c1CCNC(=O)/C(=C/c1ccccc1)NC(=O)c1ccc(Br)o1,-2.5%
16,COc1ccc(-n2nc3c(N4CCCC(C(=O)NCCc5cccs5)C4)nnc(C)c3c2C)cc1 (stereo not shown),10.7%
17,CC(C)c1ccc(-c2c(N3CCc4ccccc4C3)c(=O)c2=O)cc1,0.589%
18,CC(=O)Nc1ccc(C)c(NC(=O)COc2ccc(C)cc2)c1,-4.01%
19,Cc1cccc(C(=O)N2CCN(C(=O)c3cccc(C)c3)CC2)c1,2.94%
20,COc1ccc(/C=C\c2onc(C)c2S(=O)(=O)N2CCC(C(=O)N3CCCC(C)C3)CC2)cc1 (stereo not shown),-3.09%
21,CCOc1ccccc1C1C(C#N)=C(N)Oc2[nH]nc(-c3ccc(C)cc3)c21 (stereo not shown),-2.78%
22,CCOC(=O)C1=CN(C)C=C(C(=O)OCC)C1c1cccs1,-5.05%
23,Cc1ccc(C(C)C)c(OCC(O)CN2C(C)CCCC2C)c1 (stereo not shown),5%
24,CCCNC(=O)CN(c1cccc(Cl)c1)S(=O)(=O)c1ccc(OC)cc1,1.94%
25,N#CC1C(=O)N=C(N2CCN(Cc3ccc4c(c3)OCO4)CC2)NC12CCCCC2 (stereo not shown),-7.15%

row,Structure (SMILES),% Inhibition @ 10 uM
1,CC(C)c1ccc(N(CC(=O)Nc2cccc3ccccc23)S(C)(=O)=O)cc1,-0.173%
2,CCOc1ccc(C(=O)Nc2ccc(Br)cc2)cc1,11.5%
3,CCn1ncc(C2=NOC(C(=O)NCc3ccc4c(c3)OCO4)C2)c1C (stereo not shown),-1.37%
4,C=CCn1c(SC)nc(=O)c(CC)c1O,4.03%
5,c1ccc(CCn2cccc2)cc1,-6.42%
6,O=C(COc1ccccc1Cl)N1CCN(c2ccccn2)CC1,-0.759%
7,COc1ccc(-c2nnc3n(Cc4ccc(F)cc4)c(=O)c4ccccc4n23)c(O)c1,-1.72%
8,CC(C)Oc1ccc(/C=C2\SC(=O)N(CC(=O)Nc3ccccc3)C2=O)cc1,-5.15%
9,CC(C)N1C(=O)CCC1C(=O)N1CCC(Cc2ccccc2)CC1 (stereo not shown),-1.34%
10,COC(=O)c1ccc2nc(Nc3nc4c(OC)cccc4s3)sc2c1,0.458%
11,Cc1ccc(S(=O)Cc2ccc(C(=O)NC3CCC(C)CC3)o2)cc1 (stereo not shown),0.458%
12,CN1C(=O)S/C(=C/c2ccc(-c3cccc(F)c3)o2)C1=O,1.28%
13,OC(CN1CCOCC1)C12CC3CC(CC(C3)C1)C2 (stereo not shown),-3.32%
14,O=C1CCCCCN1CP(=O)(O)C1Cc2ccccc2C1,-1.69%
15,CCN1C(=O)/C(=C2/Sc3ccc(Cl)cc3N2C)S/C1=N/c1ccc(Cl)cc1,-10.7%
16,CCOc1ccc(-n2nnc(-c3nc(-c4cccnc4)no3)c2N)cc1,1.66%
17,CCn1c(C)cc(/C=C2\SC(=O)N(CC(=O)Nc3ccc(F)cc3)C2=O)c1C,2.79%
18,Cc1ccc2[nH]c(C)c(CCNC(=S)NC(C)(C)C)c2c1,-5.79%
19,OCCN1CCN(c2ncnc3sc4c(c23)CCC4)CC1,-0.511%
20,Cc1ccc(N(CC(=O)NC2CC3CCC2C3)S(C)(=O)=O)cc1Cl (stereo not shown),5.99%
21,Cc1nn(C(C)C(=O)NCCc2ccc(Cl)cc2)c(=O)c2c1sc1ccccc12 (stereo not shown),-4.26%
22,CC1=C(C(=O)NCCc2cccs2)C2(CCCCCC2)OC1=O,3.48%
23,CC1(C)Cc2c(sc3nc(SCC(N)=O)n(CCc4ccccc4)c(=O)c23)CO1,5.9%
24,CCCN1CCC(NC23CC4CC(CC(C4)C2)C3)CC1,-0.414%
25,Cc1onc(-c2c(Cl)cccc2Cl)c1C(=O)Nc1ncccn1,2.08%
